Experimental data: PubChem BioAssay AID1345083 (National Center for Advancing Translational Sciences (NCATS), 2018)
In all, about 94,000 compounds went through this assay and about 6,200 (6.6%) were called active. The shares of active, inactive and inconclusive entries below differ from those in the screen. Calls follow the shape of the dose curve; as a rule, active = well fitted inhibition curve with a large enough effect; inconclusive = small, poorly fitted or top-dose-only effect; inactive = flat fitted curve, though single readings scatter. Potencies of inconclusive entries are doubtful fits and often do not repeat.

experiment: Cytotoxic Profiling in HEK 293 Cell Line of Diverse Libraries Using Quantitative High-Throughput Screening; conditions: HEK 293 viability, ATP luminescence (CellTiter-Glo), 48-72 h; series mostly up to 115 µM; also: nearly all actives have a fitted effect of over 60% in size
Summary of the method: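 HEK 293 seeded at 250 cells/well receive compound via pintool. After 48 or 72 hr at 37 degree Celsius, 5% CO2 and 95% humidity, CellTiter-Glo is dispensed and luminescence read following 10 min at room temperature.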
Potency is read from the fitted curve at half-maximal effect; tags tell the direction and shape of the fitted curve.

SMILES	Potency
COc1cc(F)cc(-c2cnc3[nH]cc(CC(=O)N4CCOCC4)c3c2)c1	inconclusive: 56.2 µM [inhibitor, partial curve, poor fit]
CCc1nc(NC(=O)Cn2nc3c(cc2=O)CCCCC3)sc1C	inconclusive: 89.1 µM [inhibitor, single point]
CC1CCCN(C(=O)c2cc3c(s2)CCN(C(=O)c2ccc(Cl)cc2)C3)C1 (stereo unspecified)	active: 44.7 µM
O=C(CN1CCN(c2ncncc2-c2nc(-c3ccccc3)no2)CC1)N1CCCCC1	inconclusive: 35.5 µM [inhibitor, partial curve, poor fit]
CC(C)C1CN(C(=O)c2ccccc2-c2ncc[nH]2)CCC(=O)N1CC1CC1 (stereo unspecified)	inactive
Cc1cc(C(=O)N2CC(F)(F)C[C@H]2c2nc(C3CC3)no2)c(C)o1	inconclusive: 31.6 µM [inhibitor, partial curve, poor fit]
Nc1ccc(C(=O)N2CCCn3nc(C(=O)Nc4ccccc4)cc3C2)cn1	inconclusive: 89.1 µM [inhibitor, single point]
COc1ccc(-c2cc(-c3ccncc3)cn3cncc23)cc1	inconclusive: 79.4 µM [inhibitor, partial curve]
CNC(=O)c1cc(C2CC2)nc2c1c(C1CCN(C(=O)c3ccccc3C)C1)nn2C (stereo unspecified)	inactive
COc1ccc(-c2cc(C[C@H]3CNCC[C@H]3CC(=O)NCc3ccc(F)cc3)no2)cc1	inconclusive: 39.8 µM [inhibitor, full curve, poor fit]
O=C1N[C@H](CC(=O)N2CCC(c3noc4cc(F)ccc34)CC2)C(=O)Nc2ccccc21	inconclusive: 89.1 µM [inhibitor, single point]
COc1cccc(-c2cc(C(=O)NCC34CCC=C3N(C)C(=O)CC4)[nH]n2)c1 (stereo unspecified)	inconclusive: 56.2 µM [inhibitor, partial curve, poor fit]
Cn1cnc(C(=O)N2CCC(N3C(=O)C4(CCCC4)C3c3ccccc3)CC2)c1 (stereo unspecified)	inconclusive: 89.1 µM [inhibitor, single point]
COc1ccc(C2Cn3nnc(C(=O)N4CCN(C(=O)c5ccc(F)cc5)CC4)c3CO2)cc1 (stereo unspecified)	inconclusive: 44.7 µM [inhibitor, partial curve, poor fit]
O=C(c1ccncc1)N1CCC2(CC1)NCCc1c2[nH]c2ccccc12	inactive
CCOc1ccc(C(=O)N2CCCN(S(C)(=O)=O)c3ccccc32)cc1OCC	inactive
O=C(CCCc1ccccc1)N1CCC(Cc2nc(-c3ccncc3)n[nH]2)CC1	inconclusive: 50.1 µM [inhibitor, partial curve, poor fit]
COc1ccc(NC(=O)Cn2c(N3CCCCC3)nc(C)c(C)c2=O)cc1Cl	active: 25.1 µM
O=C(NCc1ccccn1)C1CCCN(c2ccnc3ccnn23)C1 (stereo unspecified)	inactive
CCC(CC)NC(=O)CCC1CCN(C(=O)c2ccccc2F)CC1	inactive
Cc1nc(N2CCC(NC(=O)c3ccc4c(c3)OCO4)CC2)cc(C(F)(F)F)n1	inactive
O=C(Nc1ccc2c(c1)OCO2)N1CCc2onc(-c3ccc(F)c(F)c3)c2C1	inconclusive: 89.1 µM [inhibitor, single point]

SMILES	Potency
CC(=O)Nc1ccc(CN2CCOC[C@H]2c2ncc(-c3cccc(Cl)c3)[nH]2)cc1	inconclusive: 112 µM [inhibitor, single point]
O=C(C1CCCN1C(=O)c1ccccc1)N1CCC(N2Cc3ccccc3C2=O)CC1 (stereo unspecified)	inactive
O=C(NC1CCN(c2nccc(Nc3ccccc3F)n2)CC1)c1ccccc1Cl	inconclusive: 50.1 µM [inhibitor, partial curve, poor fit]
CC1=C[C@@H](CNC(=O)c2cccnc2)[C@H](C(C)C)C[C@H]1Cc1nc2ccc(F)cc2[nH]1	inconclusive: 20 µM [inhibitor, full curve, poor fit]
CCc1ccccc1NC(=O)CN1C(=O)C(c2ccccc2)=NC12CCCC2	inconclusive: 44.7 µM [inhibitor, partial curve, poor fit]
Cc1ccc(C2Cn3nnc(C(=O)N4CCC(C(=O)NCC(C)C)CC4)c3CO2)cc1 (stereo unspecified)	inactive
COCCCNC(=O)C1(CCO)CCN(Cc2ccccc2)C1 (stereo unspecified)	inactive
NC(=O)[C@@H]1C[C@H]2CN(c3ccccc3)C(=O)c3cccc(c32)N1C(=O)C1CCC1	inactive
O=C(NCc1ccccc1F)c1ccc2oc(-c3ccccn3)nc2c1	inconclusive: 50.1 µM [inhibitor, partial curve, poor fit]
O=C1Nc2ccc(-c3cccc(C(F)(F)F)c3)cc2C(=O)N2CCN(C(=O)C3CCNCC3)C[C@H]12	inactive
Cn1c(Cn2cccn2)nnc1C1CC(Nc2ncnc3ccsc23)C1 (stereo unspecified)	inconclusive: 28.2 µM [inhibitor, full curve]
COCC(=O)Nc1cc(-c2cccnc2)nn1-c1ccccc1	inconclusive: 39.8 µM [inhibitor, full curve]
CN(Cc1ccccc1)C(=O)[C@@H]1C[C@@H](c2ccc(F)cc2)N([S+](=O)([O-])c2ccccc2)C1	inconclusive: 50.1 µM [inhibitor, partial curve, poor fit]
O=C(c1ccccc1)N1CCOCC12CCN(Cc1ccc3[nH]ccc3c1)CC2	inconclusive: 100 µM [inhibitor, partial curve]
COc1cccc(CN2C[C@@H]3C[C@H]2C(=O)Nc2ccccc2O3)c1	inconclusive: 126 µM [inhibitor, single point]
O=C1CC2(CCN(C(=O)c3ccc(Cl)cc3)CC2)Oc2cc(Cl)ccc21	inconclusive: 50.1 µM [inhibitor, partial curve, poor fit]
CCc1nc2cc(N3CCC(C(=O)NCc4ccccc4F)CC3)cnc2nc1CC	inconclusive: 50.1 µM [inhibitor, partial curve, poor fit]
CC(=O)NC1CCN(C(=O)c2ccc(-c3cncnc3)cc2)CC1	inactive
COCCCN(CCC(=O)NCc1ccc(F)cc1)C(=O)c1cc(C)oc1C	inactive
O=C(NCCc1ccccn1)c1cc2n(n1)CC(c1ccc(Br)cc1)OC2 (stereo unspecified)	inconclusive: 44.7 µM [inhibitor, partial curve, poor fit]
O=C(NC1CCCCC1)C1CCN(C(=O)c2ncn3c2COC(c2ccc(Cl)cc2)C3)CC1 (stereo unspecified)	inactive
COc1ccc(-c2cccc(C(=O)NCCCOC(C)C)c2)nn1	inactive

SMILES	Potency
COc1ccc(CN2CCC(O)(CN3CCCCC3)C2)cc1Cl (stereo unspecified)	inconclusive: 79.4 µM [inhibitor, partial curve, poor fit]
Cc1ccc(C(=O)N2CCC(N3CCCNC3=O)CC2)cc1	inactive
COC1C(=O)N(c2cccc(F)c2)C12CCN(Cc1cccc(C#N)c1)CC2 (stereo unspecified)	inconclusive: 56.2 µM [inhibitor, partial curve, poor fit]
O=C(CCc1ccccc1)N1CCC(Cc2nncn2-c2ccccc2)C1 (stereo unspecified)	inactive
O=C(COCC1CCCCO1)N1CCn2nc(Cc3ccccc3)cc2C1 (stereo unspecified)	inconclusive: 89.1 µM [inhibitor, single point]
CN1CC(=O)N(c2ccc(Cl)cc2)Cc2c(NCc3cccs3)ncnc21	inconclusive: 79.4 µM [inhibitor, partial curve, poor fit]
CC(CCc1ccccc1)Nc1ncnc2c1CN(C1CCNC1)C(=O)CN2C (stereo unspecified)	inactive
Cn1cnc(C(=O)N2CCCCCCn3c(nnc3-c3ccc(F)cc3)CC2)c1	inactive
O=C(Nc1ccc2c(c1)CN(CCc1ccc(F)cc1)C(=O)CO2)c1c(F)cccc1F	inconclusive: 100 µM [inhibitor, partial curve, poor fit]
CCCCC(=O)N1CCC(N(Cc2ccccc2)C2CCOCC2)CC1	inconclusive: 89.1 µM [inhibitor, single point]
CCn1nc(C(C)C)cc1C(=O)N1CCc2onc(-c3cccc(F)c3)c2C1	inconclusive: 44.7 µM [inhibitor, partial curve, poor fit]
Cc1ccc(NC(=O)N2CCC(n3c(C)cnc3C3CCOCC3)CC2)cc1C	inactive
Cc1cccc(C(=O)N2CCOC(CCCc3ccccc3)C2)n1 (stereo unspecified)	inconclusive: 89.1 µM [inhibitor, single point]
O=C1Nc2ccc(/C=C/c3ccccc3)cc2C(=O)N2CC[C@H](NS(=O)(=O)c3cccs3)[C@@H]12	inconclusive: 50.1 µM [inhibitor, partial curve, poor fit]
CCc1cc(=O)n(CC(=O)NCCc2ccc(Cl)cc2)c(N2CCOCC2)n1	inconclusive: 50.1 µM [inhibitor, partial curve, poor fit]
CN1C(=O)c2ccccc2CC12CN(C(=O)c1ccc(Cl)cc1)C2	inconclusive: 89.1 µM [inhibitor, partial curve, poor fit]
O=C(C1CCCC1)N1CC2(CCN(Cc3ccccn3)CC2)Cc2ccccc21	active: 100 µM
CC(=O)NC[C@H]1CCN(S(=O)(=O)c2cccc(C#N)c2)C[C@H]1N(C)C	inactive
Cc1ccccc1C(=O)N1CCc2c(nc(-c3ccncc3)nc2N(C)C)C1	inconclusive: 89.1 µM [inhibitor, single point]
CCN1CCN(C(=O)c2cn3cc(-c4cccc(OC)c4)sc3n2)CC1	inconclusive: 89.1 µM [inhibitor, single point]
CCc1ccc(NC(=O)Cn2c(-c3cccc(Cl)c3)nc(C)c(CCO)c2=O)cc1	active: 28.2 µM
COc1ccc(CC(=O)N2CCCN(c3ccc4nnc(-c5ccccc5)n4n3)CC2)cc1	inconclusive: 89.1 µM [inhibitor, single point]
